Results published in PubChem BioAssay AID485344 (National Center for Advancing Translational Sciences (NCATS), 2010).
The campaign covered roughly 340,000 compounds. About 6,900 (2%) were called active. Cut-off read from the data, not from the text of the source: active = inhibition above about 30%; inactive = below that, where a call was filed. Only a part is listed here, and it is no random draw. The source gives no active or inactive call for entries shown without one.

Each compound was assayed against D(2) dopamine receptor (Homo sapiens) (UniProt P14416) (assay: HTS Assay for Allosteric Antagonists of the Human D2 Dopamine Receptor: Primary Screen for Antagonists). Settings: HEK293 TREx D2 cells, calcium flux, dopamine EC80; at 10 µM; stronger effect = higher value.
Chain of UniProt P14416 (P14416 whole entry, looked up): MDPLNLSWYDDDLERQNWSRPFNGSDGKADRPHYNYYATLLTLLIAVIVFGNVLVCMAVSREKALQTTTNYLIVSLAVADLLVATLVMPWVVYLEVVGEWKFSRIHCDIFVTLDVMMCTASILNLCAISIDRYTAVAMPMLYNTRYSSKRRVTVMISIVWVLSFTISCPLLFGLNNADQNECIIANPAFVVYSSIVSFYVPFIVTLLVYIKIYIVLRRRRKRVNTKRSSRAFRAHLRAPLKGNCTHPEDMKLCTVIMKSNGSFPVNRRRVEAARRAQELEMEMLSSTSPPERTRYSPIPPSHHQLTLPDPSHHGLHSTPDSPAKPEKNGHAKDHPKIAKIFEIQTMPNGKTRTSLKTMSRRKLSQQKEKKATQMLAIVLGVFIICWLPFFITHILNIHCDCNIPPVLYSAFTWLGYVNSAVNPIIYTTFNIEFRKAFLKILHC
How it was run: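 Read-out: kinetic calcium fluorescence (1 cycle/s) in inducible HEK293 T-REx D2 cells after an EC80 dopamine addition that followed 180 s compound preincubation. Loss of the dopamine response indicates antagonism.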
Note: 0% is about no effect.

| SMILES | inhibition |
| --- | --- |
| CCN1CCN(C(=O)Cn2ncc3c4ccccc4n(Cc4c(C)cc(C)cc4C)c3c2=O)CC1 | -6.33% |
| Cc1ccc(NC(=O)CCCn2nc(C)c3c(C)n(-c4ccccc4)nc3c2=O)c(Cl)c1 | -7.32% |
| COC(=O)CN1C(C(=O)c2ccccc2)=C(OC(=O)c2ccccc2)c2ccccc2S1(=O)=O | -7.18% |
| CCCN1C(C(=O)c2ccccc2)=C(OC(=O)COc2ccc(C)cc2)c2ccccc2S1(=O)=O | -10.9% |
| COc1ccc(S(=O)(=O)N(CC(=O)Nc2ccc(Br)cc2)Cc2ccccc2)cc1 | -8.5% |
| Cc1ccc(NC(=O)C2CCCN(S(=O)(=O)c3cccs3)C2)c(C)c1 (centres undefined) | -1.09% |
| Cc1cc(O)c(CN2CCN(c3ccccc3)CC2)c2oc(=O)cc(C)c12 | 12.7% |
| CCOC(=O)c1cc(NC(=O)c2ccc(F)cc2)c(=O)n2c1oc1ccc(Cl)cc12 | -7.55% |
| CCCSCCCNC(=O)Cn1c(-c2cccs2)cc2ccccc21 | 20.6% |
| O=C(Nc1c2c(nn1-c1ccc(Cl)cc1)CS(=O)(=O)C2)c1ccc(Br)cc1 | 27.1% |
| CCc1cccc(NC(=O)C2CCN(S(=O)(=O)c3ccc4c(c3)NC(=O)CO4)CC2)c1 | active: 30.3% |
| Cc1ccc(CN(C(=O)COc2ccc(F)cc2)C2CCS(=O)(=O)C2)o1 (centres undefined) | 6.06% |
| CCn1cc(S(=O)(=O)c2ccccc2)c(=O)c2cc(F)c(F)cc21 | -1.96% |
| Cc1ccc(-n2ncc(C(=O)NCCN3CCC(Cc4ccccc4)CC3)c2C2CCN(C(=O)OC(C)(C)C)CC2)cc1 | -7.49% |
| O=C(NCC(c1cccnc1)N1CCc2ccccc21)c1ccc(Cl)cc1 (centres undefined) | -14% |
| Cc1cc(NS(=O)(=O)c2ccc(NC(=O)COc3cc(C)c(Br)cc3C(C)C)cc2)no1 | 6.88% |
| CC(C)CCNC(=O)c1ccc2nc(Cc3ccccc3)oc2c1 | -24.4% |
| CCOc1ccc(N(CC)C(=O)Cn2cnc3sc(C)c(S(=O)(=O)N4CCN(c5ncccn5)CC4)c3c2=O)cc1 | 3.92% |
| COc1ccc(-c2cc(C(F)(F)F)nc(SCC(=O)NC(C)c3ccccc3)n2)cc1 (centres undefined) | -8.13% |
| COc1cccc2cc(C(=O)Nc3ccc(C)cc3)c(=O)oc12 | 4.62% |
| Cc1ccc(CCNC(=O)c2ccc3c(c2)N(Cc2cccc(F)c2)C(=O)c2ccccc2S3)cc1 | 2.77% |
| Cc1oc2c(CN3CCC(C)CC3)c(O)ccc2c(=O)c1-c1ccccc1 | active: 44.5% |
| O=C(NCc1nnc(SCC(=O)N2CCCC2)o1)c1c(F)cccc1F | active: 32.1% |
| Cc1ccc2c(=O)cc(C(=O)Nc3sc4c(c3C(=O)NCc3cccnc3)CCCC4)oc2c1 | 4.65% |

| SMILES | inhibition |
| --- | --- |
| CCOC(=O)c1ccc(NC(=O)C2=C(C)C(=O)OC23CCN(C(C)C)CC3)cc1 | 3.79% |
| CCO[C@@H]1OC(C(=O)O)=C[C@H](c2csc3ccccc23)[C@H]1CCCO | active: 32% |
| O=C(CCNS(=O)(=O)c1ccc2c(c1)CCN2C(=O)C1CC1)Nc1ccc(OC(F)(F)F)cc1 | 10.7% |
| COc1cccc(C(=O)Nc2ccc3nc(SCCOc4ccccc4)sc3c2)c1 | -16% |
| CCc1ccc2oc(-c3cc(NC(=O)c4cccs4)ccc3Cl)nc2c1 | 14.5% |
| Cc1c(C)c2c(OCC(=O)NCc3ccco3)cc3c(c2oc1=O)CCC(C)(C)O3 | active: 30% |
| CCC(C)NC(=O)Cn1ccc2cc(S(=O)(=O)N3CCCCCC3)ccc21 (centres undefined) | 11.4% |
| Cc1cccc(N2CCN(CCCNc3ncnc4onc(-c5ccc(F)cc5)c34)CC2C)c1 (centres undefined) | 14.1% |
| COc1ccc(C)cc1S(=O)(=O)N(C)CC(=O)NCc1ccncc1 | active: 32.8% |
| O=C(Nc1ccccc1C(=O)N1CCCCC1)c1nsc2ccccc12 | -9.67% |
| CCCCCOc1ccc(/C=C/C(=O)Nc2sc3c(c2C(=O)OCC)CCC3)cc1OC | 5.71% |
| CCCCOc1cccc(C2c3c(-c4cc(C)ccc4O)n[nH]c3C(=O)N2CCOC)c1 (centres undefined) | -14.3% |
| CNC(=O)c1cnc2sc(N3CCC(C)CC3)nn2c1=O | 2.76% |
| COc1cccc(Nc2nc(CC(C)=O)ns2)c1 | active: 32.8% |
| COc1ccc(NC(=O)CNC(=O)Cn2ccc3ccccc3c2=O)cc1OC | 1.73% |
| CCc1ccc(NC(=O)c2cc(=O)c3ccc(C)c(C)c3o2)cc1 | -8.99% |
| O=C(Cc1ccc(-c2ccccc2)cc1)NCCS(=O)(=O)N1CCN(c2ccccc2F)CC1 | -20.6% |
| COC(=O)CN1C(=O)CSc2ccc(S(=O)(=O)Nc3ccc(C)c(Cl)c3)cc21 | 1.32% |
| COc1cccc(NC(=O)C2CCCN(c3ncnc4onc(C)c34)C2)c1 (centres undefined) | 6.29% |
| CCC(C)OC(=O)/C(C#N)=C/c1ccc(-c2ccc(Br)cc2)o1 (centres undefined) | 2.28% |
| O=C(CCCCCn1c(=O)c2sccc2n(CC(=O)Nc2ccccc2F)c1=O)NCc1ccc2c(c1)OCO2 | -8.44% |
| Cc1ccc(C2CC(=O)Nc3c2c(C)nn3-c2nc(C)cc(C)n2)c(C)c1 (centres undefined) | 3.85% |
| COc1cc(CN(C(=O)COc2ccccc2)c2ccccn2)cc(OC)c1OC | -14% |
| CCc1ccc(S(=O)(=O)c2nnn3c2nc(N(CC)Cc2ccccc2)c2cc(Cl)ccc23)cc1 | -13.3% |

| SMILES | inhibition |
| --- | --- |
| Cc1cc2n(n1)CCCN2C(=O)Nc1ccccc1C(F)(F)F | 0.374% |
| CCCCN(C)C(=O)CCC(=O)NNc1nc2ccccc2c2nc(C)nn12 | 12.3% |
| CCC(Nc1ccc(-c2nc(-c3ccccn3)no2)cc1[N+](=O)[O-])c1ccccc1 (centres undefined) | 8.42% |
| Cc1oc(-c2cccc(Cl)c2)nc1Cn1c(SCc2ccc(F)cc2)nc2cccnc21 | -2.94% |
| Cc1cccc(N2CCn3c2nc2c3c(=O)n(CCCc3ccccc3)c(=O)n2C)c1 | -8.58% |
| COc1cc2c(C(=O)N(C)c3cccc(C(F)(F)F)c3)cn(CC(C)C)c(=O)c2cc1OC | 15.3% |
| Cc1ccc(C(c2sc3nc(-c4ccco4)nn3c2O)N2CCN(c3ccc(F)cc3)CC2)cc1 (centres undefined) | 11.8% |
| COc1ccc(-c2cn3nc(SCC(=O)Nc4cccc(C)c4C)ccc3n2)cc1 | -15.1% |
| CCOCCn1ccc2c(OCC(=O)Nc3cc(C)cc(C)c3)cccc2c1=O | -11.5% |
| CC1CCN(C(=O)CN2CC(C)Sc3ccccc32)CC1 (centres undefined) | 11.6% |
| Cc1ccc(NC(=O)N2CC=C(c3c[nH]c4ccccc34)CC2)cc1Cl | -2.91% |
| Cc1cccc(C(=O)Nc2ccc(OCc3cc(=O)n4ccc(C)cc4n3)cc2)c1 | -13.1% |
| Cc1ccc(NS(=O)(=O)c2ccc(-n3cccn3)cc2)c(Br)c1 | 8.52% |
| COc1ccc(Nc2nc3ccccc3n3c(N)nnc23)cc1 | -5.13% |
| Cc1c[nH]c2cccc(OCC(CNC(C)(C)C)OC(=O)c3ccccc3)c12 (centres undefined) | active: 70% |
| OCC1(CCc2ccccc2)CCCN(C/C=C/c2ccccc2)C1 (centres undefined) | active: 44.8% |
| Cc1ccccc1C(=O)N1CCC(c2nc(-c3ccc(S(=O)(=O)N4CCCC4)cc3)no2)CC1 | -10.9% |
| Clc1cccc(Nc2ncnc3c2nc2n3CCCCC2)c1 | 2.52% |
| Cn1c(=O)oc2cc(S(=O)(=O)CCC(=O)NCc3ccc(Cl)cc3)ccc21 | -5.42% |
| Cc1ccsc1CN(Cc1ccco1)c1cnc(S(C)(=O)=O)nc1C(=O)Nc1ccc(Cl)cc1 | 15% |
| C=CCNC(=O)c1ccccc1NC(=O)COc1ccccc1 | active: 58.9% |
| COc1cc(Nc2nc3c(S(=O)(=O)c4ccccc4)nnn3c3ccc(Cl)cc23)cc(OC)c1 | -5.24% |
| CCN(C1CCCCC1)S(=O)(=O)c1ccc(S(=O)(=O)N2CCN(CCC#N)CC2)cc1 | active: 37.6% |
| O=C(c1cncc(Br)c1)N1CCN(S(=O)(=O)c2ccccc2C(F)(F)F)CC1 | active: 40.4% |

| SMILES | inhibition |
| --- | --- |
| O=c1c2oc3ccccc3c2n(Cc2ccccc2Cl)c(=O)n1Cc1ccc2c(c1)OCO2 | 3.52% |
| CCOC(=O)c1cnn(CCOC(=O)Cc2cccs2)c1NC(=O)Cc1cccs1 | active: 33.5% |
| COc1ccccc1Nc1cc(C(=O)NCCCN(C)C2CCCCC2)c2ccccc2n1 | 16.9% |
| Cc1ccc2c(c1)N(C(=O)CCC(=O)NCc1ccccc1F)CC(C)O2 (centres undefined) | 13.4% |
| O=C(COc1ccc(Cl)cc1)OCc1cc(=O)n2nc(C3CCCCC3)sc2n1 | 1.68% |
| CCOC(=O)c1ccc2c(c1)N(Cc1cc(C)ccc1C)C(=O)c1ccccc1S2(=O)=O | -11.7% |
| COc1cccc(NC(=O)/C=C/c2ccc([N+](=O)[O-])cc2)c1 | active: 44.6% |
| Cc1cc(C)cc(NC(=O)[C@H]2O[C@@H]3OC(C)(C)O[C@@H]3[C@H]3OC(C)(C)O[C@H]32)c1 | -5.22% |
| CC(C)CC(=O)NC1CC(=O)N(c2ccc3c(c2)OCCO3)C1 (centres undefined) | 19.3% |
| CN(Cc1ccccc1)c1nc2c(S(=O)(=O)c3cccc(Cl)c3)nnn2c2ccsc12 | 4.23% |
| CCCCNC(=O)CSc1nc2cc3c(cc2c(=O)n1CCCC(=O)NCc1ccc(OC)cc1)OCO3 | 0.781% |
| O=C1CN(C(=O)c2ccc(S(=O)(=O)N3CCCC3)cc2)C(c2ccc(F)cc2)c2cc(Br)ccc2N1 (centres undefined) | -4.46% |
| COC(=O)c1ccccc1NC(=O)NCc1ccc2c(c1)CCN2C(=O)c1ccccc1 | 14.3% |
| CCC1CN(S(=O)(=O)c2cc(-c3cc(C)no3)ccc2OC)c2cc(Cl)ccc2O1 (centres undefined) | -2.31% |
| O=S(=O)(NCCc1csc2nc(-c3ccc(Cl)cc3)nn12)c1cccs1 | -9.1% |
| COc1ccc(/C=C/CN2CCCC(C(=O)c3cc(F)ccc3F)C2)cc1 (centres undefined) | active: 34.2% |
| CC(=O)N1CCc2c(sc3c2c(=O)n(-c2ccccc2C)c(=O)n3CC(=O)Nc2ccccc2)C1 | 13.4% |
| Cc1ccc(C(=O)NNC(=O)c2cc(OCC(F)(F)F)ccc2OCC(F)(F)F)cc1 | active: 32.4% |
| Cc1ccc(S(=O)(=O)c2nc(-c3cccs3)oc2N2CCC(C)CC2)cc1 | 3% |
| Cn1c(=O)sc2cc(NS(=O)(=O)c3ccc(C(C)(C)C)cc3)ccc21 | -20.8% |
| COc1ccc(C(=O)NCc2cn3ccc(C)cc3n2)cc1 | 7.06% |
| Cc1c(C(=O)Nc2c(F)cccc2F)sc2ncn(Cc3ccccc3F)c(=O)c12 | -2.06% |
